From PubChem BioAssay AID624173 (National Center for Advancing Translational Sciences (NCATS), 2012)
The whole screen tested about 410,000 compounds, of which about 490 (0.12%) were called active. Inconclusive means that the source gave no clear call. Such entries were picked first, then a sample of the others. Calls follow the shape of the dose curve; as a rule, active = well fitted inhibition curve with a large enough effect; inconclusive = small, poorly fitted or top-dose-only effect; inactive = flat fitted curve, though single readings scatter. Potencies of inconclusive entries are doubtful fits and often do not repeat.

Target: pyruvate kinase (Trypanosoma brucei) (UniProt Q57TT1)
Assay: qHTS of Trypanosoma Brucei Inhibitors; also: nearly all actives have a fitted effect of over 50% in size
Conditions: TbPYK enzyme, Kinase-Glo Plus ATP luminescence, 45 min; series mostly up to 76.8 µM; activity, negative = inhibition: at the top concentration
In short: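 T. brucei PYK with substrate was exposed to pin-transferred compounds across a concentration series, then started with 130 uM ADP (final). After 45 min at room temperature, Kinase-Glo Plus luminescence was read, normalized and curve-fitted.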
% is scaled to controls: 0 for no effect and ±100 for the full control effect; potency is read from the fitted curve at half-maximal effect; tags tell the direction and shape of the fitted curve.

| Compound | activity, negative = inhibition | Potency |
| --- | --- | --- |
| Oc1ccc2ccccc2c1C=NC12CN3CCN(CN(C3)C1)C2 | inactive: -2.02% |  |
| O=C(N/N=C/c1ccc(N2CCOCC2)o1)c1cccc(F)c1 |  | inconclusive: 31.6 µM [inhibitor, single point] |
| CCCCCCCC#Cc1ccccc1/C=N/S(=O)c1ccc(C)cc1 (stereo unspecified) |  | active: 20 µM |
| COC(=O)c1ccc2c(c1)C(C)(C)C(/C=C/c1ccccc1O)=[N+]2C |  | inconclusive: 25.1 µM [inhibitor, partial curve, poor fit] |
| CCc1cc(-c2n[nH]c(=S)n2-c2ccccc2C)cs1 |  | inconclusive: 5.62 µM [inhibitor, partial curve, poor fit] |
| O=[N+]([O-])c1ccccc1/C=N/n1c(-c2ccccc2)n[nH]c1=S |  | inconclusive: 3.55 µM [inhibitor, full curve] |
| COC1=C/C(=C/c2c(O)c(C#N)c3ccccn23)C=CC1=O |  | inconclusive: 25.1 µM [inhibitor, partial curve, poor fit] |
| Cc1nn(C)cc1-c1n[nH]c(=S)n1-c1ccc(Cl)cc1 |  | inconclusive: 15.8 µM [inhibitor, partial curve, poor fit] |
| O=C(Cn1cc(S(=O)(=O)Cc2ccc([N+](=O)[O-])cc2)c2ccccc21)N1CCOCC1 |  | inconclusive: 12.6 µM [inhibitor, partial curve, poor fit] |
| Cc1c(NC(=O)COC(=O)c2ccc(Br)o2)c(=O)n(-c2ccccc2)n1C | inactive: -12.2% |  |
| O=C(COc1cccnc1[N+](=O)[O-])Nc1ccc2c(c1)OCO2 | inactive: -0.747% |  |
| CCCCC1C(=O)NC(=S)N(C)C1=O (stereo unspecified) |  | inconclusive: 31.6 µM [inhibitor, partial curve] |
| COc1ccc(-c2n[nH]c(=S)n2-c2ccc(C)cc2)cc1 |  | inconclusive: 2.51 µM [inhibitor, full curve] |
| CC(=O)Nc1c(Nc2ccccc2)c2ccccc2oc1=O | inactive: -7.49% |  |
| O=CC(Br)P(=O)(N1CCOCC1)N1CCOCC1 (stereo unspecified) |  | inconclusive: 7.94 µM [inhibitor, partial curve] |
| CCc1ccc(N=C2NC(=O)/C(=C/c3ccc(OCC(=O)O)cc3)S2)cc1 | inactive: -10.6% |  |
| CC1(C)CC(=O)C(C(C#Cc2ccccc2)C2=C(O)CC(C)(C)CC2=O)=C(O)C1 |  | inconclusive: 50.1 µM [inhibitor, single point] |
| COc1ccc(C(=O)Nc2noc3ccccc23)cc1 |  | inconclusive: 35.5 µM [inhibitor, single point] |
| CCCC1=NN(c2ccc([N+](=O)[O-])cc2)C(=O)/C1=C\N(C)C | inactive: 4.16% |  |
| S=c1[nH]nc(-c2ccc(Cl)cc2)n1/N=C/c1ccco1 |  | active: 3.98 µM |
| C=CCn1c(C23CC4CC(CC(C4)C2)C3)n[nH]c1=S |  | inconclusive: 7.94 µM [inhibitor, partial curve, poor fit] |
| CCOc1ccccc1NC(=O)CCCc1ccc(OC)c(C)c1 | inactive: 2.52% |  |
| CCCc1nc2c(c(=O)c3ccccc3n2C)c(=O)n1-c1ccc(F)cc1 | inactive: -7.66% |  |

| Compound | activity, negative = inhibition | Potency |
| --- | --- | --- |
| NS(=O)(=O)c1cccc(NC(=O)Cn2cc(C(F)(F)F)cc(Cl)c2=O)c1 | inactive: -12.4% |  |
| CCC(=O)N1CCc2cc(Br)cc(S(=O)(=O)CC(=O)OC)c21 |  | inconclusive: 50.1 µM [inhibitor, single point] |
| COCCNC(=S)N1CCC(C(=O)c2ccc(C)cc2)CC1 | inactive: -1.73% |  |
| Fc1ccc(Nc2cncc(-c3ccsc3)c2)cc1Cl |  | inconclusive: 35.5 µM [inhibitor, partial curve, poor fit] |
| O=C(O)/C=C/C(=O)c1ccc2c(c1)CCc1ccccc1-2 |  | active: 35.5 µM |
| CCOC(=O)N1CCC(NC(=O)c2ccc3c(c2)N(C)CCS3)CC1 |  | inconclusive: 50.1 µM [inhibitor, single point] |
| O=C1c2[nH]nc(-c3ccc(Br)cc3)c2C(c2cccc(O)c2)N1c1ccc(Cl)cc1 (stereo unspecified) | inactive: 0.561% |  |
| COC(=O)c1cnc(NNS(=O)(=O)c2ccc(Cl)cc2)nc1C(F)(F)F | inactive: -16.9% |  |
| C=CCN1C(=O)/C(=c2\sc3nc(=O)c(Cc4ccccc4Cl)nn3c2=O)c2ccccc21 |  | inconclusive: 28.2 µM [inhibitor, partial curve] |
| S=c1[nH]nc(-c2ccc(Cl)cc2Cl)n1-c1ccc(Cl)cc1 |  | inconclusive: 28.2 µM [inhibitor, partial curve, poor fit] |
| COc1ccc(-c2csc(Nc3cccc(C)n3)n2)cc1C | inactive: 0.0708% |  |
| CNC(CC(=O)c1ccc([N+](=O)[O-])cc1)C(Cl)(Cl)Cl (stereo unspecified) |  | active: 12.6 µM |
| CCCCN(CCCC)C(=O)c1sc2nc(N3CCOCC3)c3c(c2c1N)CCCC3 |  | inconclusive: 11.2 µM [inhibitor, partial curve, poor fit] |
| O=C(/C=C/c1ccco1)c1ccc(NC(=O)C23CC4CC(CC(C4)C2)C3)cc1 |  | inconclusive: 14.1 µM [inhibitor, partial curve, poor fit] |
| CCOC(=O)c1sc(NC(=O)CSc2n[nH]c(-c3ccccc3)n2)c(C#N)c1C |  | inconclusive: 15.8 µM [inhibitor, partial curve] |
| COc1cc(-c2n[nH]c(=S)n2C(C)c2ccccc2)cc(OC)c1OC (stereo unspecified) |  | inconclusive: 5.62 µM [inhibitor, partial curve] |
| CCCCSCCCNC(=O)Nc1ccc(CC)cc1 | inactive: -1.82% |  |
| Oc1c(N=Nc2ccccn2)ccc2ccccc12 |  | inconclusive: 39.8 µM [inhibitor, single point] |
| N#CC1=C(N)NC(=S)C(C(N)=O)C1c1ccc(Cl)cc1Cl (stereo unspecified) |  | inconclusive: 31.6 µM [inhibitor, partial curve] |
| O=c1c2ccccc2sn1-c1ccc(Cl)cc1Cl |  | active: 17.8 µM |
| COc1ccc(N=C2NN=C(c3c(C)[nH]c4ccccc34)CS2)cc1 |  | inconclusive: 7.94 µM [inhibitor, full curve] |
| COc1cc(S(=O)(=O)N2CCCCC2)ccc1NC(C)=O | inactive: 0.643% |  |
| CN(C)c1ccc(C=c2c3cc([N+](=O)[O-])ccc3n3c2cc(-c2ccccc2)[n+]3C)cc1 |  | inconclusive: 28.2 µM [inhibitor, single point] |
